# Results taken from PubChem BioAssay AID1508649 (National Center for Advancing Translational Sciences (NCATS), 2021).
# Among all 43,000 compounds or so, about 830 (1.9%) were called active. The shares of active, inactive and inconclusive entries below differ from those in the screen. How the source made its calls: active means clear falling dose curves in both reporters; inconclusive means both reporters move, but less clearly or upward; inactive means either reporter flat; the % is the NLuc reporter signal. Potencies of inconclusive entries are left out as doubtful fits.
# Assay: Cell-based coincidence reporter assay to measure PMP22 gene transcription in S16 Pmp22-F2sN cells - Primary screen
# Details: S16 Pmp22-F2sN Schwann cells (luciferase reporters placed in the Pmp22 gene), FLuc/NLuc coincidence luminescence, 24 h; measured here: NLuc reporter readout, at 57.5 µM (top of the series)
# In short: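 Schwann cells carrying the coincidence reporter were exposed to library compounds for 24 h at 37C, then lysed and read for FLuc and, after quenching, NLuc luminescence on a CCD imager.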
# Potency means the concentration at half of the fitted maximal effect; tags describe the fitted curve by direction and shape.
row,Structure (SMILES),Potency
1,Cc1ccc2nc(-c3ccncc3)c(Nc3ccc(C(C)C)cc3)n2c1,"inconclusive [phenotype inactive, single point]"
2,COc1ccc(S(=O)(=O)NCCc2sc(-c3cccc(C)c3)nc2C)cc1,"inconclusive [phenotype inactive, partial curve]"
3,COc1cc(Cl)c(NC(=O)CN(C)S(=O)(=O)c2ccc3c(c2)CCCC(=O)N3)c(OC)c1,"inconclusive [phenotype inactive, single point]"
4,COc1ccccc1CNS(=O)(=O)c1ccc(N2CCCCS2(=O)=O)cc1,"inconclusive [phenotype inactive, single point]"
5,CCCCCn1c(CNC(=O)c2ccc(F)cc2)nc2ccccc21,"inconclusive [phenotype inactive, single point]"
6,COc1ccc(C)cc1NC(=O)CCNS(=O)(=O)c1cccc2nonc12,inactive
7,CCOc1ccccc1NC(=O)c1cnc(N2CCOCC2)c2ccccc12,inactive
8,CNc1oc(-c2ccc(COc3ccc(C)cc3)o2)nc1C#N,inactive
9,CCCCCN1C(C(=O)c2ccccc2)=C(NC(C)=O)c2ccccc2S1(=O)=O,inactive
10,CC(=O)c1cccc(NC(=O)c2c(C)nn(-c3ccc(F)cc3)c2-n2cccc2)c1,"inconclusive [phenotype inactive, single point]"
11,Cc1cc(C)cc(C(=O)Nc2nnc3n2CCS3)c1,"inconclusive [phenotype inactive, single point]"
12,CCOC(=O)c1ccc(NC(=O)CSc2nccn2Cc2ccc(OC)cc2)cc1,"inconclusive [phenotype inactive, single point]"
13,COc1ccccc1CNC(=O)c1ccc2c(c1)CCN2S(=O)(=O)c1ccc(Cl)cc1,"inconclusive [phenotype inactive, single point]"
14,COc1ccc(NC(=O)NCC2CCN(Cc3ccccc3F)CC2)c(OC)c1,"inconclusive [phenotype inactive, single point]"
15,Cc1ccc(-n2nc3c(N4CCC(C(=O)NCCc5ccccc5C)CC4)nnc(C)c3c2C)cc1,active: 9.46 µM
16,COC(=O)c1ccc(Cn2c(SCC(=O)NCc3ccccc3)nc3ccccc32)cc1,"inconclusive [phenotype inactive, single point]"
17,Cc1c(Cl)cccc1-n1ncc(C(=O)N2CCOCC2)c1C1CCN(C(=O)OC(C)(C)C)CC1,inactive
18,Cc1ccc(NC(=O)C2CCN(c3nnc(C)c4c(C)n(-c5ccccc5)nc34)CC2)cc1Cl,inactive
19,Cc1ccc(C)c(NS(=O)(=O)c2cc3c4c(c2)C(C)C(=O)N4CCC3)c1 (stereo not given),inactive
20,Cn1c(Oc2ccc(Cl)cc2)nc2c1c(=O)n(Cc1ccc(F)cc1)c(=O)n2C,inactive

row,Structure (SMILES),Potency
1,CCOC(=O)c1c(Oc2ccc(C(C)=O)cc2)nnc(-c2ccccc2)c1-c1ccccc1,"inconclusive [phenotype inactive, single point]"
2,CC1=Nc2cc(C(=O)NCCc3ccc(Cl)cc3)ccc2Sc2c(C)ccc(C)c21,active: 7.81 µM
3,CCCCC1CCC(C(=O)N2CC(=O)Nc3ccc(Cl)cc3C2c2ccc(F)cc2)CC1 (stereo not given),"inconclusive [phenotype inactive, single point]"
4,COc1ccc(CNC(=O)c2cnn(-c3ccc(F)cc3)c2-n2cccc2)cc1,inactive
5,Cc1nc2c3ccccc3nc(NNC(=O)CCC(=O)N3CCN(c4cccc(C(F)(F)F)c4)CC3)n2n1,"inconclusive [phenotype inactive, partial curve, poor fit]"
6,O=C(O)c1ccc(NC(=O)c2cc3ccccc3o2)cc1,inactive
7,O=C(NCCCN1CCN(c2ccccc2F)CC1)c1cc2c(s1)-c1ccccc1OC2,"inconclusive [phenotype inactive, single point]"
8,O=c1cc(-c2ccccc2)c2ccc3c(c2o1)CN(Cc1ccccc1)CO3,inactive
9,CCOc1ccccc1NC(c1nnc(-c2ccccc2)o1)c1ccc(F)cc1Cl (stereo not given),"inconclusive [phenotype inactive, single point]"
10,O=C(CCOc1ccccc1)N(Cc1cccnc1)c1nc2ccc(F)cc2s1,active: 13.4 µM
11,COc1ccc(-c2ccc(CCC(=O)O)n2-c2ccc(Cl)cc2C)cc1,"inconclusive [phenotype inactive, single point]"
12,Cc1cc(C)n(CCc2nc3c4ccccc4nc(N4CCN(c5ccc(F)cc5)CC4)n3n2)n1,"inconclusive [phenotype inactive, partial curve, poor fit]"
13,O=C(CSc1nc(-c2cccc(F)c2)[nH]c1-c1ccccc1)Nc1ccc2c(c1)OCCO2,"inconclusive [phenotype inactive, single point]"
14,CCOc1ccccc1NC(=O)c1c(NCc2cccs2)sc2c1CCC(C)C2 (stereo not given),"inconclusive [phenotype inactive, single point]"
15,CC(C)CN(CC(C)C)S(=O)(=O)c1ccc(C(=O)Nc2sc3c(c2C(N)=O)CC(C)(C)NC3(C)C)cc1,"inconclusive [phenotype inactive, single point]"
16,O=C(CSc1nc2ccsc2c(=O)n1Cc1ccccc1Cl)NCc1ccc(F)cc1,"inconclusive [phenotype inactive, single point]"
17,CCOc1ccc(C2CC(=O)Nc3cc4c(cc32)OCO4)cc1OC (stereo not given),"inconclusive [phenotype inactive, single point]"
18,CCCOc1ccc(C(=O)Nc2ccc(NC(=O)c3ccccc3)c(Br)c2)cc1,"inconclusive [phenotype inactive, partial curve]"
19,Cc1nnc(NCc2ccccc2)c2c1nnn2Cc1ccc(F)cc1,"inconclusive [phenotype inactive, single point]"
20,Cc1ccc(C)c(Cn2nc(-c3cc(C)ccc3C)ccc2=O)c1,"inconclusive [phenotype inactive, single point]"
